The record followed here is PubChem BioAssay AID485344 (National Center for Advancing Translational Sciences (NCATS), 2010).

Out of some 340,000 compounds screened, about 6,900 (2%) were called active. No stated cut-off is given here; in the data, active means inhibition above about 30%; inactive means below that, where a call was filed. This is a selection; strong and weak results do not stand in their true shares. The source gives no active or inactive call for entries shown without one.

Sequence of UniProt P14416 (P14416 whole entry, looked up): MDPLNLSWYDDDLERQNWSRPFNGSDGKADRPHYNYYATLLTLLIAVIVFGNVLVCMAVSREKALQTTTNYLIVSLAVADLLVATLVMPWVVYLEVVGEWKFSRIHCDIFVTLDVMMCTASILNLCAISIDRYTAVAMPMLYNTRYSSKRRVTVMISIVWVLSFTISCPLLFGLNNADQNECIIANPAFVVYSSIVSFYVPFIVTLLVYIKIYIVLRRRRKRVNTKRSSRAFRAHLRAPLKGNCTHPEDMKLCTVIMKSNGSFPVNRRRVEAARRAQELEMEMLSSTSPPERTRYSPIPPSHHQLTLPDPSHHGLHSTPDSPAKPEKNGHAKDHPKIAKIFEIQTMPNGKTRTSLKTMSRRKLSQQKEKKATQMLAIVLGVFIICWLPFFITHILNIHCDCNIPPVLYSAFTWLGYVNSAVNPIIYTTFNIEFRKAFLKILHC

The experiment has as its target D(2) dopamine receptor (Homo sapiens) (UniProt P14416). The experiment is described as follows: HTS Assay for Allosteric Antagonists of the Human D2 Dopamine Receptor: Primary Screen for Antagonists. Further: 0% is about no effect. The settings on record: HEK293 TREx D2 cells, calcium flux, dopamine EC80; at 10 µM; stronger effect = higher value. An outline of the steps:
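Inhibition of EC80 dopamine-driven calcium flux, recorded kinetically, defines activity here; cells are a tetracycline-induced HEK293 T-REx line expressing force-coupled D2.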
For orientation: Calcium assays in cells follow changes in intracellular calcium, usually with a dye or a luminescent sensor.
As usually defined, the inhibition is the relative decrease from the control value, in per cent. As to `Cc1n[nH]c(C)c1S(=O)(=O)N1CCCC(C(=O)Nc2ccc(Cl)cc2)C1` (stereo unspecified), the inhibition is -2.04%.

Take `Cc1ccc(N2CCN(C(=O)c3c4c(nc5ccccc35)C(=O)N(C3CCCCC3)C4)CC2)c(C)c1`: the inhibition was determined as 4%. The same measure for `CCOC(=O)c1ccc(NC(=O)C(CC)Sc2nc3ncccc3o2)cc1` (stereo unspecified): -1.89%; for `COc1ccc(C(=O)Nc2nc3c(s2)CCc2cc(OC)ccc2-3)cc1`: 1.73%; for `COCCCn1c(SCC(=O)NCc2ccccc2)nc2c(sc3ccccc32)c1=O`: 0.774%. As to `CN(C)c1ccc(CNC(=O)C2CCN(S(=O)(=O)c3ccc4c(ccn4C)c3)CC2)cc1`, the inhibition came to 3.3%. Turning to `Cc1ccc(C)c(Nc2nn3c(=O)c4ccc(C(=O)NCCc5ccccc5)cc4nc3s2)c1`, the inhibition is -12.2%. With `CSc1ncc(C(=O)NCc2ccccc2)c(-c2ccccc2)n1`, the inhibition was -1.52%. `CC(C)(C)n1cnc2cc(NCc3ccccc3Cl)ccc21`: the inhibition came out at 7.86%. Regarding `COc1ccc(NC(=O)C2CCCN2S(=O)(=O)c2cccc3cccnc23)cc1OC` (stereo unspecified), the inhibition was determined as 9.88%. In the case of `CC(C)Oc1ccc(CNC(=O)c2ccc(NC(=O)N3CCSc4ncccc43)cc2)cc1`, the inhibition came out at 8.03%. In the case of `CCC(C(=O)NCc1ccccc1OC)n1nc(C)n2c(cc3sccc32)c1=O` (stereo unspecified), the inhibition was -4.07%. In the case of `CCOC(=O)c1c(S(=O)(=O)NCC(=O)Nc2ccc(C)c(Cl)c2)c(C)n(C)c1C`, the inhibition stood at 14.2%.

Consider `COc1ccc(-c2nc3sc(CCNC(=O)c4cccc(C(F)(F)F)c4)c(C)n3n2)cc1`, for which the inhibition came to 6.15%.

For the compound `CCOc1ccc(C2c3[nH]c4ccccc4c3CCN2C(=O)Cc2cccc(OCC)c2OCC)cc1` (stereo unspecified), the inhibition was -21.6%. For `OC(C#CCCN1CCCCC1)(c1ccccc1)c1ccccc1`, the inhibition is active: 33.4%. Consider `CCOC(=O)c1cnc2ccc(C(=O)OC)cc2c1Nc1ccccc1CC`, for which the inhibition was determined as 6.88%. `Cc1ccccc1Cn1nnc2c(=O)[nH]c(C3CCN(C(=O)c4ccccc4)CC3)nc21`: the inhibition worked out at 6.31%. With `COC(=O)c1ccccc1NC(=O)CSc1nc(-c2ccccc2)cc(C(F)(F)F)n1`, the inhibition is 4.53%. Consider `CC(=O)c1ccc(NC(=O)c2ccc3c(c2)N(Cc2cccc(Cl)c2)C(=O)c2ccccc2S3(=O)=O)cc1`, for which the inhibition is -1.35%. As for `O=C(NCc1ccccc1)c1ccc2c(c1)C(=O)N(CC1CCCO1)C2=O` (stereo unspecified), the inhibition was active: 31%.

Regarding `CCOC(=O)c1c(C)[nH]c(C)c1S(=O)(=O)N1CCC(C(=O)Nc2ccc(F)cc2F)CC1`, the inhibition worked out at 1.92%.

Turning to `Cn1c(=O)oc2cc(S(=O)(=O)N3CCOCC3)ccc21`, the inhibition is active: 45.9%. Take `CCOCCc1nn2c(=O)cc(COC(=O)COc3ccccc3Cl)nc2s1`: the inhibition is 7.69%. Next, `Cc1cc(Cl)ccc1NC(=O)CN1C(=O)CSc2ccc(S(=O)(=O)N(C)C)cc21`: 2.56%. For the compound `COc1ccccc1CNC(=O)CCc1c(C)nc2cc(-c3ccccc3OC)nn2c1C`, the inhibition was -7.95%. Take `COc1ccc(CNC(=O)Cn2ccc3cc(S(=O)(=O)N4CCCCC4)ccc32)c(OC)c1`: the inhibition is -3.44%.

On to `Cc1ccc(NC(=O)CN2CCCN(Cc3ccccc3Cl)S2(=O)=O)c(C)c1`, for which the inhibition was -2.27%.

Regarding `CC1CCN(C(=O)CN2C(=O)C(=O)N(C)C2=O)c2ccccc2S1` (stereo unspecified), the inhibition was active: 44.3%. In the case of `CCOC(=O)c1cnc2cc(C(F)(F)F)ccc2c1N1CCN(c2ccc(F)cc2)CC1`, the inhibition was 14.1%.

As for `COc1ccccc1CNC(=O)C1CCCN(c2nn3cc(-c4ccc(F)cc4)nc3s2)C1` (stereo unspecified), the inhibition is -19.4%.

For the compound `Cc1ccc(Cn2ccn(CC(=O)Nc3ccccc3C(F)(F)F)c(=O)c2=O)cc1`, the inhibition was -27.8%.

In the case of `CCOc1ccc(CCNC(=O)CS(=O)Cc2nc(-c3ccc(C)cc3)oc2C)cc1OCC` (stereo unspecified), the inhibition came to 16.1%.

`COc1cccc(/C=C/c2nc(C#N)c(N3CCCCC3)o2)c1`: the inhibition was 2.09%.

In the case of `O=C(c1cnc2cc(-c3ccccc3)nn2c1)c1cc([N+](=O)[O-])ccc1O`, the inhibition amounted to 16.1%.

Regarding `CCCn1c(=N)c(C(=O)NCc2cccnc2)cc2c(=O)n3cc(C)ccc3nc21`, the inhibition was 3.14%.

For the compound `CCc1ccc(CSc2nc(-c3ccccc3OC)nc3c2Cc2c(CO)cnc(C)c2O3)cc1`, the inhibition is -11.9%.

`CSc1ccc(CCNC(=O)CCc2c(C)nc3c(-c4ccccc4)c(C)nn3c2C)cc1`: the inhibition was found to be 8.09%. For `Cc1ccccc1Cn1nc(C)c(NC(=O)c2cc(-c3ccc(F)cc3)on2)c1C`, the inhibition came to 13.5%. With `COC(=O)c1ccc2c(=O)n(CCCCCC(=O)NCc3ccccc3)c(=O)[nH]c2c1`, the inhibition is -10.7%. `O=C(c1ccco1)N1CCN(CC(O)COc2ccc(Br)cc2)CC1` (stereo unspecified): the inhibition is active: 77.2%. On to `CCc1ccc(NC(=O)c2cc(-c3cccs3)on2)cc1`, for which the inhibition is -19.7%.

On to `CCOC(=O)c1c(NC(=O)/C=C/c2ccc(OC)c(OC)c2)sc(C(C)=O)c1C`, for which the inhibition came out at 2.55%. Regarding `O=C(CN1CCSc2ccccc21)N1CCN(c2ccccc2)CC1`, the inhibition turned out to be 10.1%.

On to `CC(=O)c1ccc(NS(=O)(=O)c2cc3[nH]c(=O)c(=O)[nH]c3cc2C)cc1`, for which the inhibition came out at 22%. For the compound `Cc1ccc(C)c(N2CCN(C(=O)Cn3ncc4c(=O)oc5ccc(C)cc5c43)CC2)c1`, the inhibition is -0.872%. Regarding `COc1ccc(S(=O)(=O)NCCc2nnc3ccc(SCC(=O)Nc4ccc(C(F)(F)F)cc4)nn23)cc1`, the inhibition came out at 2.24%. Next, `Cc1ccc(CNC(=O)CN(c2ccc(C(C)C)cc2)S(=O)(=O)c2c(C)n[nH]c2C)cc1`: -5.63%; `CC(C)(C)CC(=O)Nc1nnc2n1CCS2`: 8.41%; `COc1ccc(Cn2ccnc2SCC(=O)Nc2ccc(C)cc2C)cc1`: 10.6%. As to `COc1cccc(NC(=O)CN2CCCN(S(=O)(=O)c3ccc(Br)cc3)CC2)c1`, the inhibition worked out at 0.498%. The same measure for `O=C(COc1ccc(Cl)cc1)Nc1ccccc1C(=O)OCc1cc(=O)n2ccsc2n1`: 0.383%; for `CCCC(=O)NCC(c1ccc2c(c1)OCO2)N1CCOCC1` (stereo unspecified): 16.9%. `COc1ccccc1CNC(=O)CN1C(=O)CSc2c1c(C)nn2-c1ccccc1`: the inhibition worked out at 11.6%. For the compound `O=C(NCCSCc1c(F)cccc1Cl)C1CCN(S(=O)(=O)Cc2ccccc2)CC1`, the inhibition is -10.4%. Next, `c1ccc(-c2ccc(CN3CCN(c4ncccn4)CC3)cc2)cc1`: active: 118%; `Cc1cc(C)c2c(=O)c3c(oc2c1)C(=O)N(Cc1ccc(F)cc1)C3c1cccc(O)c1` (stereo unspecified): -25.7%; `CC(C)(C)NC(=O)NC(=O)COC(=O)CCCc1c[nH]c2ccccc12`: active: 70%. On to `CC1CCN(CCOc2ccc(OCc3ccccc3)cc2)CC1`, for which the inhibition was active: 30.9%. Regarding `Cc1ccc(-c2cc(NC(=O)C(C)Oc3ccc(C)c(C)c3)on2)cc1` (stereo unspecified), the inhibition is 1.45%. Consider `CC(=O)c1cccc(NC(=O)CCCN2C(=O)COc3ccc(C)cc32)c1`, for which the inhibition is -9.78%.

On to `CCOc1ccc(C(=O)Nc2nnc(S(=O)(=O)N(CC)c3ccccc3C)s2)cc1`, for which the inhibition is -3.87%. Consider `O=C(NCCc1ccccc1)c1ccc2c(c1)CCN2S(=O)(=O)c1ccc(Br)cc1`, for which the inhibition was determined as 4.9%. As to `O=C(CCS(=O)(=O)c1cccs1)Nc1ccc(C(=O)Nc2cccc(Cl)c2)cc1`, the inhibition is -6.76%. In the case of `COc1cc(OC)cc(C(=O)N2CCC(c3ccncc3)CC2)c1`, the inhibition amounted to 6.74%. With `COc1ccc(N2CC(c3nc(-c4cc(OC)c(OC)c(OC)c4)no3)CC2=O)cc1Cl` (stereo unspecified), the inhibition was -5.49%. Next, `CCNc1nc2c(c(=O)[nH]c(=O)n2C)n1CC(O)COc1ccc(Cl)cc1Cl` (stereo unspecified): -8.17%.

Regarding `COc1ccc(CNc2ccc3cc(S(=O)(=O)N4CCCCC4)ccc3n2)cc1`, the inhibition was -5.18%. Take `Cc1ccc(C)c(NC(=O)CN2C(=O)CSc3nc(C)cc(C)c32)c1`: the inhibition is -12.5%.

Take `O=C(Cc1ccccc1)Nc1c(C(=O)N2CCN(c3ccc(F)cc3)CC2)oc2ccccc12`: the inhibition was -12.4%.

Turning to `O=C(Nc1ccc(SC(F)F)cc1)c1cc(-c2cccs2)on1`, the inhibition was determined as 1.99%.

`CC1CCN(C(=O)CN2CCSc3ccccc32)CC1`: the inhibition was -2.56%. For `CC(NC(=O)c1nn(C)c2c1CSc1ccccc1-2)c1ccccc1` (stereo unspecified), the inhibition is 12.3%. Consider `COc1ccc(OC)c(NC(=O)CSc2nc(-c3ccccc3C)nc3cc(=O)[nH]n23)c1`, for which the inhibition was found to be 3.19%.

Regarding `COC(=O)c1sc2cccc(F)c2c1S(=O)(=O)N1CCN(c2ccccc2OC)CC1`, the inhibition stood at 8.67%. For the compound `CC(C)(C)c1ccc(Oc2nc3ccccn3c(=O)c2/C=C(\C#N)c2nc3ccccc3[nH]2)cc1`, the inhibition was -2.9%.

For the compound `COc1ccc(CNC(=O)c2ccc3c(c2)N(C)C(=O)C2CCCCN32)cc1OC` (stereo unspecified), the inhibition worked out at 13.7%. With `CCN(CC)CCN1C(=O)C(=O)/C(=C(/O)c2ccc(Cl)cc2)C1c1ccncc1` (stereo unspecified), the inhibition was active: 40.2%. As for `O=C(CCC(=O)N1CC2CCCN2c2ccccc21)NCc1ccccc1` (stereo unspecified), the inhibition is -22.5%. With `Cc1cc(NC(=O)CN2C(=O)N(C)C3(CCCCC3)C2=O)ccc1Br`, the inhibition was active: 33.4%. For the compound `CCOC(=O)c1ccc(NC(=O)C2=C(C)Nc3nc(SCc4ccc(Cl)cc4)nn3C2c2ccc(C)cc2)cc1` (stereo unspecified), the inhibition was determined as 6.16%. Regarding `Cc1nn(C(=O)COc2ccccc2)c(C)c1Sc1ccccc1`, the inhibition was -0.437%. `CCOc1ccc(CC(=O)NCCc2csc(-c3ccc(C(F)(F)F)cc3)n2)cc1`: the inhibition came to 1.95%. As for `COc1ccc(-c2nc(C(N)=O)c3c(n2)n(-c2ccccc2OC)c(=O)n3C)c(OC)c1`, the inhibition was -6.4%. Consider `COc1cccc(OCC(O)CN2CCN(c3ccccn3)CC2)c1` (stereo unspecified), for which the inhibition was active: 91.5%.

In the case of `O=C(c1ccc(F)cc1)N1CCC(c2nc3ccccc3o2)CC1`, the inhibition worked out at 12.6%. Next, `CC(C)NC(=O)CC(=O)Nc1ccc2nc3n(c(=O)c2c1)CCCCC3`: -7.06%; `O=C(NC1CCCCCC1)c1cc2c(Cl)nc3ccccc3c2s1`: -23.1%. `CCOc1ccccc1NC(=O)C(NS(=O)(=O)c1ccc2c(c1)CCC(=O)N2)c1ccccc1` (stereo unspecified): the inhibition came to 18.1%.

In the case of `CCOC(=O)c1ccc2c(c1)N(CC(=O)Nc1ccc(C)cc1C)C(=O)c1ccccc1S2`, the inhibition stood at 6.31%. As for `COc1ccc(NC(=O)c2nnn(Cc3nc(-c4cc(OC)c(OC)c(OC)c4)oc3C)c2C)cc1`, the inhibition was 19%. `CCN(CC)C(=O)Cn1cc(SCC(=O)Nc2ccccc2F)c2ccccc21`: the inhibition was -9.71%.

On to `COc1ccc(NC(=O)CN2C(=O)COc3ccc(S(=O)(=O)Nc4ccccc4)cc32)cc1OC`, for which the inhibition turned out to be 9.57%. Regarding `Cc1c(Cl)cccc1Nc1nn2c(=O)c3ccc(C(=O)NCCc4ccccc4)cc3nc2s1`, the inhibition was 0.054%.

With `CCN(c1cccc(C)c1)S(=O)(=O)c1ccc2c(c1)NC(=O)CCS2`, the inhibition was -4.29%.

`O=C(COCc1cc(-c2cccs2)on1)Nc1cccc(Cl)c1Cl`: the inhibition was -3.78%.
